# From PubChem BioAssay (NCATS)
# The shares of active, inactive and inconclusive entries below differ from those in the screen. For some assays here: Potencies beside an inconclusive call are fits to weak or partial responses and may not hold up. Activity calls are given as the source filed them. Unless noted, calls follow the shape of the dose curve; as a rule, active = well fitted curve in the direction sought with a large enough effect; inconclusive = small, poorly fitted or top-dose-only effect, or another doubt; inactive = no such curve, though single readings can be large; an effect the other way counts as inactive or inconclusive.
# Assays:
# Hek293T = assay: Primary qHTS to identify gynecologic anti-cancer compounds using libraries of approved drugs and bioactive compounds (AID 1345084); details: Gynecologic cancer cell panel viability, ATPlite luminescence, 48 h, control line for the selectivity index; series mostly up to 57.5 µM; also: nearly all actives have a fitted effect of over 55% in size; also: potency is read from the fitted curve at half-maximal effect; as to activity change, negative = cytotoxicity: % is scaled to controls: 0 for no effect and ±100 for the full control effect
# How it was run: (§1)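 In this quantitative HTS, cell killing is estimated from loss of ATP-dependent luciferase light. Cells see five compound concentrations over a 48 h exposure.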
# [1] = qHTS of pediatric cancer cell lines to identify multiple opportunities for drug repurposing: Primary screen for LAN-5 cells (AID 1347100);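 also: plate controls were DMSO neutral control for no effect and bortezomib positive control for full effect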
# How it was run: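 Cells (500-1,000/well) in growth media were settled 5 h at 37 degrees C, then given compounds for 48 h. Viability was read as CellTiter-Glo luminescence. Primary runs used MIPE at 11 points (0.78 nM-46 µM) and NPC at 8 points (0.59 nM-46 µM); follow-ups used 11 points.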
# [2] = molecular target: Phospholipid hydroperoxide glutathione peroxidase GPX4 (Homo sapiens) (UniProt P36969); assay: Primary qHTS Assay for Inhibitors of Recombinant Selenoprotein Glutathione Peroxidase 4 (GPX4) (AID 1845192); also: nearly all actives have a fitted effect of over 65% in size; also: potency is read from the fitted curve at half-maximal effect
# Chain of UniProt P36969 (P36969 whole entry, looked up): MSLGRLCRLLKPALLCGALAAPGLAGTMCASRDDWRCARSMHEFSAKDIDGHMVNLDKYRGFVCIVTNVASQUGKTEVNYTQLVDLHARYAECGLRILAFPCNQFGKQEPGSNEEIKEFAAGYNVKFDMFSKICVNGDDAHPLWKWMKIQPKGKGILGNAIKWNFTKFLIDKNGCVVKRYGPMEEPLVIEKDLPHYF
# How it was run: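 qHTS, GR-coupled: GPX4 200 nM + cpd 30 min RT → GSH 1 mM, NADPH 0.5 mM, GR 100 nM → CHP 0.5 mM start; fluor 340/450 at t0 and t15 min; no-enzyme wells as control.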
# CP297 = assay: qHTS profiling for inhibitors of Plasmodium falciparum proliferation (AID 504749); also: potency is read from the fitted curve at half-maximal effect; nearly all actives have a fitted effect of over 60% in size; details: P. falciparum in erythrocytes, SYBR Green DNA, 72 h; activity, negative = inhibition: at 28.7 µM (top of the series)
# How it was run: (§2)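 Fluorescence of SYBR Green-bound parasite DNA, read at 485/535 nm, served as the growth measure. Infected erythrocytes were cultured with compound 72 h; artemisinin (0.29 uM) and DMSO wells defined the normalization range.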
# DIV17 = assay: as above; details: P. falciparum in erythrocytes, SYBR Green DNA, 72 h; series mostly up to 28.7 µM
# How it was run: as §2
# P93_24 = assay: as above; details: P. falciparum in erythrocytes, SYBR Green DNA, 72 h; series mostly up to 28.7 µM
# How it was run: as §2
# CAOV3 = assay: Primary qHTS to identify gynecologic anti-cancer compounds using libraries of approved drugs and bioactive compounds (AID 1345084); details: Gynecologic cancer cell panel viability, ATPlite luminescence, 48 h; series mostly up to 57.5 µM; also: nearly all actives have a fitted effect of over 55% in size; also: potency is read from the fitted curve at half-maximal effect; as to activity change, negative = cytotoxicity: % is scaled to controls: 0 for no effect and ±100 for the full control effect
# How it was run: as §1
# [3] = molecular target: Cytochrome P450 2D6 (Homo sapiens) (UniProt P10635); assay: Cytochrome P450 family 2 subfamily D member 6 (CYP2D6) small molecule antagonists: luciferase biochemical (cell-free) qHTS assay (AID 1645840; active = well fitted curve in the direction sought with a large enough effect in the repeat runs; inconclusive = weak or mixed curves; inactive = no such curve, though single readings can be large; an effect the other way counts as inactive or inconclusive; also: nearly all actives have a fitted effect of over 55% in size; also: potency is read from the fitted curve at half-maximal effect)
# Chain of UniProt P10635 (P10635 whole entry, looked up): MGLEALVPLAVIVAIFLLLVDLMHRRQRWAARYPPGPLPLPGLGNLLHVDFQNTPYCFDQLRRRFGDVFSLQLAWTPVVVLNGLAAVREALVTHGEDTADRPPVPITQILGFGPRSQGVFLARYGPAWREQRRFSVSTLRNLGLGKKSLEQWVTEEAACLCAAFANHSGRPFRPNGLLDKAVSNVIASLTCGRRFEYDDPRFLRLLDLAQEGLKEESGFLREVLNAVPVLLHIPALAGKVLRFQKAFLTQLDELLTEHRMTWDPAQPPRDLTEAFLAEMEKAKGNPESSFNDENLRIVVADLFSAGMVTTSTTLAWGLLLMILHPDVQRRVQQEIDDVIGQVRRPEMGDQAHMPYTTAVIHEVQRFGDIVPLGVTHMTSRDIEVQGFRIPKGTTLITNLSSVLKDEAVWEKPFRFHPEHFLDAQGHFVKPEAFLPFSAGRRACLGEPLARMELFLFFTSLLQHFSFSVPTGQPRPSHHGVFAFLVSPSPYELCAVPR
# How it was run: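 P450-Glo CYP2D6 system: proluciferin substrate converted by enzyme to luciferin, read by luminescence proportional to activity. Enzyme-substrate mix with compound 10 min at room temperature, then NADPH regeneration 1 h before detection reagent.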
# PA-1 = assay: Primary qHTS to identify gynecologic anti-cancer compounds using libraries of approved drugs and bioactive compounds (AID 1345084); details: Gynecologic cancer cell panel viability, ATPlite luminescence, 48 h; series mostly up to 57.5 µM; also: nearly all actives have a fitted effect of over 55% in size; also: potency is read from the fitted curve at half-maximal effect; as to activity change, negative = cytotoxicity: % is scaled to controls: 0 for no effect and ±100 for the full control effect
# How it was run: as §1
# Tov112D = assay: as above; details: Gynecologic cancer cell panel viability, ATPlite luminescence, 48 h; activity change, negative = cytotoxicity: at 57.5 µM (top of the series)
# How it was run: as §1
# [4] = Primary fluorescence-based thiol-reactive (MSTI) qHTS assay for identification of artifact compounds. (AID 1845221); also: potency is read from the fitted curve at half-maximal effect;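 also: thiol-reactive compounds lower the probe fluorescence signal; nearly all actives have a fitted effect of over 65% in size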
# How it was run: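 One-hour, room-temperature, dark incubation of compound with 4 uM MSTI in PBS (pH 7.4, 2% DMSO) precedes a fluorescence read at 525 nm excitation, 598 nm emission; Hill-equation fitting yields concentration-response values.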
# [5] = molecular target: Cytochrome P450 2C9 (Homo sapiens) (UniProt P11712); assay: Cytochrome P450 family 2 subfamily C member 9 (CYP2C9) small molecule antagonists: luciferase biochemical (cell-free) qHTS assay (AID 1645842; active = well fitted curve in the direction sought with a large enough effect in the repeat runs; inconclusive = weak or mixed curves; inactive = no such curve, though single readings can be large; an effect the other way counts as inactive or inconclusive)
# Chain of UniProt P11712 (P11712 whole entry, looked up): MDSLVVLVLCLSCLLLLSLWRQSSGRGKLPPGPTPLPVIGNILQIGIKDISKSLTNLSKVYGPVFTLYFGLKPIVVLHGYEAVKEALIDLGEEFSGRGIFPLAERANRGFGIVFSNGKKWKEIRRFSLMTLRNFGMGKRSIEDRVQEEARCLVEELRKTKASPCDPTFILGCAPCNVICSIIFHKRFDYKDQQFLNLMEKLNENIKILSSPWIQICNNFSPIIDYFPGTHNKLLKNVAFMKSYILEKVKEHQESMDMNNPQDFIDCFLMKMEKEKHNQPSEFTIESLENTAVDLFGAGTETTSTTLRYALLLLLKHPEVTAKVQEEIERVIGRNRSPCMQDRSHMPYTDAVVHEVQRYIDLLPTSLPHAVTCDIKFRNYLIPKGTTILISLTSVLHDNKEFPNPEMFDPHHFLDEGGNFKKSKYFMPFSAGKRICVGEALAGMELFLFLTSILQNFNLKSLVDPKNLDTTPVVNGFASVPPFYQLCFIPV
# How it was run: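 P450-Glo CYP2C9 system: proluciferin substrate with enzyme in mix containing 0.4% BSA, 10 min at room temperature, then NADPH regeneration solution added and incubated 1 h at 37C. Detection reagent stopped reaction; luminescence read after 20 min as RLU.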
# Tov-21-G = assay: Primary qHTS to identify gynecologic anti-cancer compounds using libraries of approved drugs and bioactive compounds (AID 1345084); details: Gynecologic cancer cell panel viability, ATPlite luminescence, 48 h; activity change, negative = cytotoxicity: at 57.5 µM (top of the series); also: nearly all actives have a fitted effect of over 55% in size; also: potency is read from the fitted curve at half-maximal effect; as to activity change, negative = cytotoxicity: % is scaled to controls: 0 for no effect and ±100 for the full control effect
# How it was run: as §1
# [6] = qHTS of pediatric cancer cell lines to identify multiple opportunities for drug repurposing: Primary screen for A673 cells (AID 1347092); details: A673 Ewing sarcoma viability, CellTiter-Glo ATP luminescence, 48 h; activity change, negative = cytotoxic: at 46 µM (top of the series); also: % is scaled to controls: 0 for no effect and ±100 for the full control effect; nearly all actives have a fitted effect of over 45% in size
# How it was run: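 A673 cells (500-1,000 cells/well) were treated 48 hours at 37 degrees C with compounds at 11-point (0.78 nM to 46 µM) or 8-point (0.59 nM to 46 µM) dilutions. Viability read by CellTiter-Glo luminescence; concentration-response curves fitted.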
# [7] = qHTS of pediatric cancer cell lines to identify multiple opportunities for drug repurposing: Primary screen for BT-37 cells (AID 1347094); also: potency is read from the fitted curve at half-maximal effect
# How it was run: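 Plated cells (500-1,000 per well, growth media) were allowed to settle for 5 hours, treated with compound dilutions for 48 hours, then lysed with CellTiter-Glo for 15 min at room temperature before luminescence reading.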
# Tags tell the direction and shape of the fitted curve.
structure (smiles),measurement,setting,value
CCn1c(N)c(C(=O)NC)c(=O)c2ccc(C#CC(C)(O)COC)nc21 (stereo not drawn),Potency,Hek293T,inactive
CCCCCCCCCCOc1cc2c(=O)c(C(=O)OCC)c[nH]c2cc1OCC,"activity change, negative = cytotoxic",[1],inactive: 22.4% [at 4.84 µM]
same,Potency,[2],"inconclusive: 2.21 µM [inhibitor, single point]"
same,Potency,CP297,"inconclusive: 0.0017 µM [inhibitor, full curve, poor fit]"
same,Potency,DIV17,active: 0.0067 µM
same,Potency,P93_24,active: 0.0032 µM
same,"activity change, negative = cytotoxicity",CAOV3,inactive: 22.4% [at 6.55 µM]
C=C1CC[C@H]2C(=C)CC[C@H]3C(=C)C(=O)O[C@@H]3[C@@H]12,Potency,CAOV3,"inconclusive: 8.91 µM [cytotoxic, single point]"
COc1ccc(N2CCN(C(=O)c3cc4c(s3)-c3ccccc3S(=O)(=O)C4)CC2)cc1,Potency,[3],inactive
same,Potency,Hek293T,"inconclusive: 35.5 µM [cytotoxic, single point]"
COc1ccc(Cl)cc1[C@@]1(F)C(=O)Nc2cc(C(F)(F)F)ccc21,Potency,Hek293T,"inconclusive: 31.6 µM [cytotoxic, single point]"
same,Potency,PA-1,"inconclusive: 25.1 µM [cytotoxic, single point]"
same,Potency,Tov112D,"inconclusive: 39.8 µM [cytotoxic, single point]"
CC(C)(CNC(=O)c1cccc(-c2noc(C(F)(F)F)n2)c1)c1coc(-c2ccccc2)n1,Potency,Hek293T,inactive
O=C(/C=C/c1ccccc1)O[C@@H]1[C@@H](CO)O[C@@](CO)(O[C@H]2O[C@H](CO)[C@@H](O)[C@H](O)[C@H]2O)[C@H]1O,Potency,[2],inactive
CCN(CC)CCCCCCNc1cc(OC)cc2c(C)ccnc12,Potency,[4],"inconclusive: 1.68 µM [inhibitor, partial curve]"
same,Potency,Tov112D,"inconclusive: 28.2 µM [cytotoxic, single point]"
CC(C)c1ccc(NC(=O)Cn2cnc3c2c(=O)n(C)c(=O)n3C)cc1,Potency,[5],"inconclusive: 23.9 µM [inhibitor, partial curve]"
same,Potency,Hek293T,inactive
C=C1C(=O)OC2C1CCC1(C)C(O)CCC(=C)C21 (stereo not drawn),Potency,[4],active: 11.9 µM
Cc1cccc(-c2[nH]ncc2-c2ccc(F)c(-c3cnn(CCO)c3)c2)n1,Potency,Hek293T,inactive
O=C(Oc1ccccc1)c1cccc(C(=O)Oc2ccccc2)c1,Potency,[1],inactive
same,Potency,Hek293T,"inconclusive: 11.2 µM [rising, single point]"
same,Potency,Tov112D,inactive
CC1(C)CN(C(=O)c2ccc(-c3cccc4nc(NC(=O)C5CC5)nn34)cc2)C1,Potency,[2],"inconclusive: 28.6 µM [inhibitor, single point]"
same,Potency,CAOV3,"inconclusive: 39.8 µM [cytotoxic, single point]"
same,Potency,Tov112D,inactive
CN(C)c1cccc(Oc2cnc(Nc3cccc(O)c3)nc2)c1,Potency,[5],"inconclusive: 37.9 µM [inhibitor, single point]"
same,Potency,[4],"inconclusive: 0.844 µM [inhibitor, full curve, poor fit]"
same,Potency,Tov-21-G,"inconclusive: 39.8 µM [cytotoxic, single point]"
O=C(Nc1ccc(Cl)cc1)c1ccccc1NCc1ccncc1,Potency,CAOV3,inactive
O=C(O)/C=C(\CC(=O)O)C(=O)O,Potency,[6],inactive
same,Potency,[7],"inconclusive: 0.347 µM [cytotoxic, full curve]"
same,Potency,[3],"inconclusive: 38.9 µM [inhibitor, partial curve, poor fit]"
same,Potency,Hek293T,inactive
Cc1nc(C(=O)N2CCC[C@H]2Cc2nnc(-c3ccccc3)o2)c(-c2ccccc2F)s1,Potency,[2],inactive
same,Potency,Tov-21-G,inactive
CC(=O)O[C@H]1CC[C@]2(C)[C@H]3CC[C@]4(C)Oc5oc(C)cc(=O)c5C[C@H]4[C@]3(C)CC[C@H]2C1(C)C,Potency,CAOV3,"inconclusive: 7.08 µM [cytotoxic, partial curve, poor fit]"
CC(=O)[C@@H]1CC[C@]2(C(=O)O)CC[C@]3(C)C(CCC4[C@@]5(C)CC[C@H](O)C(C)(C)C5CC[C@]43C)C12 (stereo partly drawn),Potency,PA-1,inactive
CN(C)[C@@H]1CCc2[nH]c3ccc(NC(=O)c4ccc(F)cc4)cc3c2C1,Potency,[4],"inconclusive: 11.9 µM [inhibitor, partial curve]"
same,Potency,Tov112D,inactive
CN(C)S(=O)(=O)c1ccc(NC(=S)N2CCC(C(O)(c3ccccc3)c3ccccc3)CC2)cc1,Potency,[2],"inconclusive: 9.04 µM [inhibitor, partial curve]"
CCOc1nc(NC(=O)Cc2cc(OC)ccc2OC)cc(N)c1C#N,Potency,[2],inactive
COc1ccccc1N1CCN(CCN2C(=O)CC3(CCCC3)CC2=O)CC1,Potency,PA-1,inactive
O=C(/C=C/c1ccc(O)c(O)c1)O[C@H]1[C@@H]2C=CO[C@@H](O[C@@H]3O[C@H](CO)[C@@H](O)[C@H](O)[C@H]3O)[C@@H]2[C@@]2(CO)O[C@@H]12,Potency,[4],active: 2.07 µM
C=CCc1ccc(O[C@@H]2O[C@H](CO[C@@H]3O[C@@H](C)[C@H](O)[C@@H](O)[C@H]3O)[C@@H](O)[C@H](O)[C@H]2O)cc1,Potency,[4],"inconclusive: 11.6 µM [inhibitor, partial curve]"
Cc1nc2ccc(Oc3ccc(F)cc3)cc2c(=O)n1C[C@H]1CCCN(C(C)C)C1,Potency,Tov-21-G,inactive
same,Potency,Tov112D,inactive
COc1ccc(C2(CNC(=O)c3ccc(NC(=O)c4ccco4)cc3)CCOCC2)cc1,Potency,[3],"inconclusive: 2.13 µM [inhibitor, partial curve]"
same,Potency,Tov112D,"inconclusive: 17.8 µM [rising, partial curve, poor fit]"
CC#CCn1c(N2CCCC(N)C2)nc2c1c(=O)n(Cc1nc(C)c3ccccc3n1)c(=O)n2C (stereo not drawn),Potency,[5],"inconclusive: 10.7 µM [inhibitor, partial curve]"
same,Potency,[4],inactive
C1CCC[C@H]2CCCN3CC[C@@H](CCCCCC[C@@H]4CCCN5CC[C@@H](CC1)O[C@@H]45)O[C@@H]23,Potency,PA-1,"inconclusive: 0.0011 µM [rising, partial curve, poor fit]"
